Experimental data published in publication PMC4336329 (PLoS ONE, 2015).
The campaign covered roughly 310,000 compounds. About 2,200 (0.71%) showed an effect of 50% or more. The effect is printed as a negative number. The list shows a part of the results.

The compounds below were run against human ether-à-go-go-related gene (hERG) potassium channel (human, UniProt Q12809) (assay: primary screen, population patch clamp on CHO cells stably expressing hERG).
Chain of human ether-à-go-go-related gene (hERG) potassium channel (Q12809 whole entry, looked up): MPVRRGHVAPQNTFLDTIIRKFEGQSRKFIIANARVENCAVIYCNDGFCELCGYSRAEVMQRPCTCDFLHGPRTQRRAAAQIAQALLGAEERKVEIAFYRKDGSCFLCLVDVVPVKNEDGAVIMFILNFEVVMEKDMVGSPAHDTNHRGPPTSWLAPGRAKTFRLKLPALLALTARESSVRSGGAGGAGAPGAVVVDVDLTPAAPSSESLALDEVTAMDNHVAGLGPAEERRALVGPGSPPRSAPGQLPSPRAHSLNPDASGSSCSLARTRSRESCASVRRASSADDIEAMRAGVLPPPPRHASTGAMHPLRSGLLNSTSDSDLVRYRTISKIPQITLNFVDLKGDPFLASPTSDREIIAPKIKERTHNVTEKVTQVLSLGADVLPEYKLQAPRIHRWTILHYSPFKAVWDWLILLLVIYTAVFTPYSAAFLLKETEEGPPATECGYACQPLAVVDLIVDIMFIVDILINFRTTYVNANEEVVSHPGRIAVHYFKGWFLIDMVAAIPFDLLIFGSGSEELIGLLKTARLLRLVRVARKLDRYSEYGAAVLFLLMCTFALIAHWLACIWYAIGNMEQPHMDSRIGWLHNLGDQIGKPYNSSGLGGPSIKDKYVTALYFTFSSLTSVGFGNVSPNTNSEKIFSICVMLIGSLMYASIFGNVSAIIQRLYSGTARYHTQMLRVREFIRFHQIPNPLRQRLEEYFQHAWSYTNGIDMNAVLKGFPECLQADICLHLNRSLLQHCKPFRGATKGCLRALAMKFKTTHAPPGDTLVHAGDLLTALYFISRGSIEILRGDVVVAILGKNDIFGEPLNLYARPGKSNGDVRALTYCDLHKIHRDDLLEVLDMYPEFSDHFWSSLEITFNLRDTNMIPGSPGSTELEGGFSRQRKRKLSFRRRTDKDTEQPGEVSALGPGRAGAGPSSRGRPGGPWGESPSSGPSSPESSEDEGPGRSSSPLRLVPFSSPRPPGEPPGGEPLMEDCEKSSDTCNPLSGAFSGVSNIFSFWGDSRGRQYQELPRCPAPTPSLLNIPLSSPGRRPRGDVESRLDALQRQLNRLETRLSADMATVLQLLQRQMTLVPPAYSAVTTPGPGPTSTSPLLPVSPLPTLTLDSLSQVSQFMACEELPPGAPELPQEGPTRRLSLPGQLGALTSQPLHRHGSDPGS

SMILES | hERG current change (%, negative = inhibition) at 1uM [%]
CCOc1ccc(CN2CCN(Cc3[nH]c4ccccc4c3C)CC2CCO)cc1 (stereo not shown) | -75.2
O=C(O)/C=C/c1cccnc1 | 13
C=CCOc1c(Br)cc(CNc2ccc(NC(=O)C(C)C)c(OC)c2)cc1OCC | 4.04
c1ccc(-c2nc(-c3ccccn3)nc(-c3ccccn3)n2)nc1 | 16.8
CCCOc1c(Br)cc(C(N)=O)cc1OCC | 5.14
COCCCNC(=S)NNC(=O)C(O)(c1ccccc1)c1ccccc1 | -14.2
CCS(=O)(=O)N1CCC(C(=O)NCc2ccccn2)CC1 | -0.459
COc1ccccc1C(=O)NCc1ccccc1 | 14.1
CSc1nc(O)c(C(c2ccc(C)cc2)c2c(O)nc(SC)[nH]c2=O)c(=O)[nH]1 | 11.6
CC(CS(=O)(=O)c1cccc2cccnc12)N1CCCCC1 (stereo not shown) | 8.83
c1ccc2c(-c3c[nH]c4ccccc34)c3ccccc3nc2c1 | 14.3
CC(=O)c1c(C(=O)O)c2ccccc2[nH]c1=O | 10.1
Cc1ccc(CCNC(=O)c2ccc(CS(=O)(=O)Cc3ccccc3F)o2)cc1 | 5.38
Cc1ccc(C(C(=O)NC2CCCCC2)N(CC2CCCO2)C(=O)CNC(=O)c2cccs2)cc1 (stereo not shown) | -2.84
CC1CCCC(NC(=O)COC(=O)[C@@H](NC(=O)c2ccco2)C(C)C)C1C (stereo partly shown) | -4.22
COc1ccc(OC)c(NC(=O)CN(c2ccc(OC)c(Cl)c2)S(C)(=O)=O)c1 | 2.52
O=c1[nH]c(=O)n(CCc2ccccc2)c(O)c1C=NCCN1CCNCC1 | 0.43
COc1ccc(CCNC(=O)CCOc2ccc(C)cc2)cc1OC | 9.77
CCOC(=O)c1cnc2ccccc2c1Nc1cccc(C(=O)O)c1.Cl | 15
CCOC(=O)c1ccc(N2CCOCC2)c(NC(=O)c2c(-c3ccccc3)noc2C)c1 | 7.87
O=C(O)C1CC(=O)N(CCc2ccc(F)cc2)C1 (stereo not shown) | 15.2
Cc1ccc(S(=O)(=O)N2CCN(c3ccc(C(=O)N4CCOCC4)cc3[N+](=O)[O-])CC2)cc1 | -7.36
Cc1c(C=Nc2ccc(S(=O)(=O)N(C)C)cc2)c(O)[nH]c(=O)c1C#N | 16.6
O=C(CC1SC(=Nc2ccc(OC(F)F)cc2)N(CCN2CCOCC2)C1=O)Nc1ccc(F)cc1F (stereo not shown) | -80.4
Cc1ccc(C(=O)Nc2ccccc2C(=O)NC(Cc2c[nH]c3ccccc23)C(=O)O)cc1 (stereo not shown) | 10.2
